{
  "source": "the supplement of paper PMC4604168 (melanoma cell lines)",
  "note": "The other results are listed elsewhere or left out. Many values rest on one well or one pass, so single values are uncertain.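 Note: cell number obtained by counting DAPI-stained nuclei in high-throughput microscope images with image analysis software, screen run in 1,536-well plates.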",
  "data": [
    {"tested_on": "IPC-298", "experiment": "cell count relative to DMSO control; melanoma cells; higher = more viable cells", "settings": "library dose: low library concentration; 72 h", "units": {"cell count": "%"}, "values": [
      {"compound": "CS(=O)(=O)c1ccc(C(=O)Nc2ccc(Cl)c(-c3ccccn3)c2)c(Cl)c1", "note": "[vismodegib] + COc1ccc2c(c1)CCC1C2CCC2(C)C(NCCCCCCN3C(=O)C=CC3=O)CCC12 [U73122] (first compound 1 µM, partner dose 0.4 µM)", "cell count": 98.2},
      {"compound": "NC1(c2ccc(-c3nc4ccn5c(=O)[nH]nc5c4cc3-c3ccccc3)cc2)CCC1", "note": "+ Cn1cc(/C=C2\\C(=O)Nc3cccnc32)c2ccccc21 [GW441756] (first compound 0.4 µM, partner dose 0.4 µM)", "cell count": 93.7},
      {"compound": "C=C(c1ccc(C(=O)O)cc1)c1cc2c(cc1C)C(C)(C)CCC2(C)C", "note": "[Bexarotene] + O=C(Nc1ccccc1)c1cc([N+](=O)[O-])ccc1Cl [GW9662] (first compound 2 µM, partner dose 2 µM)", "cell count": 88.5},
      {"compound": "NC1(c2ccc(-c3nc4ccn5c(=O)[nH]nc5c4cc3-c3ccccc3)cc2)CCC1", "note": "+ COC(=O)c1sccc1S(=O)(=O)Nc1ccc(Nc2ccccc2)cc1OC [GSK0660] (first compound 0.4 µM, partner dose 1 µM)", "cell count": 97.2},
      {"compound": "CCCS(=O)(=O)Nc1ccc(F)c(C(=O)c2c[nH]c3ncc(Cl)cc23)c1F", "note": "+ O=C(O)C(=O)Nc1sc2c(c1C(=O)O)CCNC2 [TCS401] (first compound 0.08 µM, partner dose 1.66667 µM)", "cell count": 93.6},
      {"compound": "CS(=O)(=O)c1ccc(C(=O)Nc2ccc(Cl)c(-c3ccccn3)c2)c(Cl)c1", "note": "[vismodegib] + O=C(O)C(=O)Nc1sc2c(c1C(=O)O)CCNC2 [TCS401] (first compound 1 µM, partner dose 1.66667 µM)", "cell count": 102}
    ]}
  ]
}
